The values that follow come from ChEMBL document CHEMBL1201862, “PubChem BioAssay data set” (2004).

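Each compound was tested at five concentrations against cells in 96-well plates for 48 hours. Here, GI50 denotes the concentration required for 50% inhibition of growth.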 Active and inactive are the calls of the source. No stated cut-off is given here; in the data, active = GI50 up to about 1.1 µM and inactive = higher.

In the test the test system is NCI-H322M. Put plainly: inhibition of tumour cell growth, NCI panel, 48 h.
Turning to `c1ccc(CNCCCNCCCCNCCCNCc2ccccc2)cc1`, the GI50 is inactive: 14.9 µM. For the compound `Oc1nc(-c2ccc3ccccc3c2)nc2ccccc12`, the GI50 is inactive: > 100 µM. For `CCOc1cc2cnc3c4cc(OC)c(OC)cc4ccc3c2cc1OC` the value was inactive: > 100 µM. Take `CCOC(=O)c1c(SC(=O)/C=C/c2ccccc2)n(-c2ccccc2)c(=S)n(-c2ccccc2)c1=O`: the GI50 was inactive: > 100 µM. For the compound `CCN(CC)C(=S)SS(=O)(=O)c1ccc(C)cc1`, the GI50 was inactive: > 100 µM. For `COC(=O)c1s/c(=N\C(=S)N(C)C)n(-c2ccc(Cl)cc2)c1C(=O)OC` the value was inactive: > 100 µM. For `CC1CCC2C(C)C3C(CC4C5CC=C6CC(OC7OC(CO)C(O)C(OC8OC(CO)C(O)C(O)C8O)C7OC7OC(C)C(O)C(O)C7O)CCC6(C)C5CCC43C)N2C1` (stereo not drawn), the GI50 was inactive: 15.6 µM. `C[N+](C)(C)CC1CCCCC1=O` (stereo not drawn): the GI50 was inactive: > 100 µM.

As to `CC1CCCc2c(CC3CC(=O)NC(=O)C3)n[nH]c21` (stereo not drawn), the GI50 was inactive: > 100 µM. For `O=C1OC(c2ccccc2)=N/C1=C/NC(CS)C(=O)O` (stereo not drawn), the GI50 was inactive: > 100 µM.

Consider `C=C1C2CC3CCC2C(OC(=O)c2ccccc2C(=O)O)C13` (stereo not drawn), for which the GI50 was inactive: > 100 µM. For `COc1cc2c(cc1OCCN1C(=O)c3cccc4cccc(c34)C1=O)N=C[C@@H]1CCCN1C2=O` the value was inactive: 20.1 µM. On to `CC(C)(C)CNC(=O)NCn1cc(-c2ccccc2)nn1`, for which the GI50 was inactive: > 100 µM. Take `COc1cc(C2C(=O)C(Cl)N2Nc2nc(C)cc(O)n2)cc(OC)c1OC` (stereo not drawn): the GI50 is inactive: 15 µM. For `COC(=O)C1Cc2cc3c(cc2C1)CCC3` the value was inactive: 64.9 µM; for `COc1ccc(C2SCC(=O)N2NC(=O)c2ccc(NC(C)=O)cc2)c(OC)c1` (stereo not drawn), inactive: > 100 µM. For `Cn1cc(NC(=O)c2cc(NC(=O)CCCCCCCCCCC(=O)Nc3cc(C(=O)Nc4cc(C(=O)NCCC(=N)N)n(C)c4)n(C)c3)cn2C)cc1C(=O)NCCC(=N)N` the value was inactive: 15.9 µM; for `Nc1cc(N)cc(Cc2ccccc2)c1`, inactive: > 100 µM. The result for `N#CC12CC=C(c3ccccc3)N=C1NC(c1ccccc1)=CC2` (stereo not drawn) reads inactive: > 100 µM. Regarding `CC(=O)NC(CCCCNC(=O)OCc1ccccc1)C(=O)NCc1ccccc1` (stereo not drawn), the GI50 was inactive: > 100 µM. For the compound `O=C(NN=C1NCCCCN1)Nc1ccc(Cl)cc1`, the GI50 was inactive: > 100 µM. For `CC(=O)OC/C=C(/C=C/CNC1CCCCC1)OC(C)=O`, the GI50 is inactive: 22.5 µM. The result for `C/C(=N\NC(=S)NNC(=S)N(C)c1ccccc1)c1ccccn1` reads active: 0.524 µM. The result for `COC(=O)c1c(C)cc2c(c1O)C1(O)C(=O)c3cc4c(c(O)c3C(=O)C1(OC)C(O)C2)C(=O)C=C(NC1OC(C)C(OC)C(O)C1OC)C4=O` (stereo not drawn) reads active: 0.258 µM; that for `Cc1ccc2c(c1)C(=O)C(C1OC(=O)c3ccccc31)C2` (stereo not drawn), inactive: 37.2 µM; that for `C=C(C)[C@@H](C(=O)OC)N1C(=O)c2ccccc2C1=O`, inactive: > 100 µM. As to `CSc1ccc(-c2cc(-c3nc4ccccc4[nH]3)nc(N)c2C#N)cc1`, the GI50 was inactive: 27.2 µM. For `Nc1ncnc2c1ccn2C/C=C/CO` the value was inactive: > 100 µM; for `COc1ccc(NC(=O)CSc2nnc(-c3ccc(/N=C\c4ccc(Cl)cc4)cc3)o2)cc1`, inactive: 31.6 µM; for `N#Cc1cc([N+](=O)[O-])ccc1NC(=O)C(=O)C(C(=O)/C=C/c1ccccc1)C1OC(=O)c2ccccc21` (stereo not drawn), inactive: > 100 µM. The result for `C[Si](C)(C)/C=C\CCCN1C(=O)CCC1=O` reads inactive: > 100 µM; that for `CCOC(=O)c1c(SCc2ccccc2)nc2c3ccccc3ccn12`, inactive: > 100 µM. The result for `CC1=NOC(=O)C1/N=N/c1ccc(Br)c(C)c1` (stereo not drawn) reads inactive: 31.2 µM.
